Measurements from the supplement of paper PMC8728848.
The other results are listed elsewhere or left out.

Experiments:
Assay in all cases: glycan array binding signal (z-score within array); higher = stronger binding
Conditions in all cases: glycan notation: IUPAC condensed, linker removed
[1] = molecular target: Neu5Ac(a2-3)Gal(b1-3)GalNAc
Procedure, shortened: (§1)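 Arrays were curated from the Consortium for Functional Glycomics database, 3228 in total, and kept only where the protein sequence was available. Binding is expressed as a within-array Z-score. This score was averaged across arrays of the same protein sequence at different concentrations or buffers and across linkers, and negative values can be read as non-binding.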

[2] = molecular target: Neu5Ac(a2-3)Gal(b1-3)GalNAc(b1-3)Gal(a1-4)Gal(b1-4)Glc
Procedure, shortened: as §1

[3] = molecular target: Neu5Ac(a2-3)Gal(b1-3)GalNAc(b1-4)[Neu5Ac(a2-3)]Gal(b1-4)Glc
Procedure, shortened: as §1

[4] = molecular target: Neu5Ac(a2-3)Gal(b1-3)GalNAc(b1-4)[Neu5Ac(a2-8)Neu5Ac(a2-3)]Gal(b1-4)Glc
Procedure, shortened: as §1

[5] = molecular target: Neu5Ac(a2-3)Gal(b1-3)GalNAc6S
Procedure, shortened: as §1

[6] = molecular target: Neu5Ac(a2-3)Gal(b1-3)GlcNAc
Procedure, shortened: as §1

[7] = molecular target: Neu5Ac(a2-3)Gal(b1-3)GlcNAc(b1-2)Man
Procedure, shortened: as §1

[8] = molecular target: Neu5Ac(a2-3)Gal(b1-3)GlcNAc(b1-2)Man(a1-3)[GlcNAc(b1-4)][Neu5Ac(a2-3)Gal(b1-3)GlcNAc(b1-2)Man(a1-6)]Man(b1-4)GlcNAc(b1-4)GlcNAc
Procedure, shortened: as §1

[9] = molecular target: Neu5Ac(a2-3)Gal(b1-3)GlcNAc(b1-2)Man(a1-3)[Neu5Ac(a2-3)Gal(b1-3)GlcNAc(b1-2)Man(a1-6)]Man(b1-4)GlcNAc(b1-4)GlcNAc
Procedure, shortened: as §1

[10] = molecular target: Neu5Ac(a2-3)Gal(b1-3)GlcNAc(b1-3)Gal(b1-3)GlcNAc
Procedure, shortened: as §1

[11] = molecular target: Neu5Ac(a2-3)Gal(b1-3)GlcNAc(b1-3)Gal(b1-4)GlcNAc
Procedure, shortened: as §1

[12] = molecular target: Neu5Ac(a2-3)Gal(b1-3)GlcNAc(b1-3)GalNAc
Procedure, shortened: as §1

[13] = molecular target: Neu5Ac(a2-3)Gal(b1-3)GlcNAc(b1-4)Gal(b1-4)Glc
Procedure, shortened: as §1

[14] = molecular target: Neu5Ac(a2-3)Gal(b1-3)GlcNAc(b1-6)GalNAc
Procedure, shortened: as §1

[15] = molecular target: Neu5Ac(a2-3)Gal(b1-3)GlcNAc6S
Procedure, shortened: as §1

[16] = molecular target: Neu5Ac(a2-3)Gal(b1-3)[Fuc(a1-4)]GlcNAc
Procedure, shortened: as §1

[17] = molecular target: Neu5Ac(a2-3)Gal(b1-3)[Fuc(a1-4)]GlcNAc(b1-3)Gal(b1-3)[Fuc(a1-4)]GlcNAc
Procedure, shortened: as §1

[18] = molecular target: Neu5Ac(a2-3)Gal(b1-3)[Fuc(a1-4)]GlcNAc(b1-3)Gal(b1-4)[Fuc(a1-3)]GlcNAc
Procedure, shortened: as §1

[19] = molecular target: Neu5Ac(a2-3)Gal(b1-3)[GlcNAc(b1-6)]GalNAc
Procedure, shortened: as §1

[20] = molecular target: Neu5Ac(a2-3)Gal(b1-3)[Neu5Ac(a2-6)]GalNAc
Procedure, shortened: as §1

[21] = molecular target: Neu5Ac(a2-3)Gal(b1-3)[Neu5Ac(a2-6)]GlcNAc(b1-3)[Fuc(a1-3)[Gal(b1-4)]GlcNAc(b1-6)]Gal(b1-4)Glc
Procedure, shortened: as §1

[22] = molecular target: Neu5Ac(a2-3)Gal(b1-3)]Neu5Ac(a2-3)Gal(b1-4)]GlcNAc
Procedure, shortened: as §1

Neu5Ac(a2-3)Gal(b1-4)Glc = molecular target: Neu5Ac(a2-3)Gal(b1-4)Glc
Procedure, shortened: as §1

[23] = molecular target: Neu5Ac(a2-3)Gal(b1-4)GlcNAc
Procedure, shortened: as §1

[24] = molecular target: Neu5Ac(a2-3)Gal(b1-4)GlcNAc(b1-2)Man
Procedure, shortened: as §1

[25] = molecular target: Neu5Ac(a2-3)Gal(b1-4)GlcNAc(b1-2)Man(a1-3)[GlcNAc(b1-4)][Neu5Ac(a2-3)Gal(b1-4)GlcNAc(b1-2)Man(a1-6)]Man(b1-4)GlcNAc(b1-4)GlcNAc
Procedure, shortened: as §1

[26] = molecular target: Neu5Ac(a2-3)Gal(b1-4)GlcNAc(b1-2)Man(a1-3)[Neu5Ac(a2-3)Gal(b1-4)GlcNAc(b1-2)Man(a1-6)]Man(b1-4)GlcNAc(b1-4)GlcNAc
Procedure, shortened: as §1

[27] = molecular target: Neu5Ac(a2-3)Gal(b1-4)GlcNAc(b1-2)Man(a1-3)[Neu5Ac(a2-3)Gal(b1-4)GlcNAc(b1-2)Man(a1-6)]Man(b1-4)GlcNAc(b1-4)[Fuc(a1-6)]GlcNAc
Procedure, shortened: as §1

[28] = molecular target: Neu5Ac(a2-3)Gal(b1-4)GlcNAc(b1-2)Man(a1-3)[Neu5Ac(a2-6)Gal(b1-4)GlcNAc(b1-2)Man(a1-6)]Man(b1-4)GlcNAc(b1-4)GlcNAc
Procedure, shortened: as §1

[29] = molecular target: Neu5Ac(a2-3)Gal(b1-4)GlcNAc(b1-2)[Neu5Ac(a2-3)Gal(b1-4)GlcNAc(b1-4)]Man(a1-3)[GlcNAc(b1-4)][Neu5Ac(a2-3)Gal(b1-4)GlcNAc(b1-2)[Neu5Ac(a2-3)Gal(b1-4)GlcNAc(b1-6)]Man(a1-6)]Man(b1-4)GlcNAc(b1-4)GlcNAc
Procedure, shortened: as §1

[30] = molecular target: Neu5Ac(a2-3)Gal(b1-4)GlcNAc(b1-2)[Neu5Ac(a2-3)Gal(b1-4)GlcNAc(b1-4)]Man(a1-3)[GlcNAc(b1-4)][Neu5Ac(a2-3)Gal(b1-4)GlcNAc(b1-4)Man(a1-6)]Man(b1-4)GlcNAc(b1-4)GlcNAc
Procedure, shortened: as §1

[31] = molecular target: Neu5Ac(a2-3)Gal(b1-4)GlcNAc(b1-2)[Neu5Ac(a2-3)Gal(b1-4)GlcNAc(b1-6)]Man(a1-6)[Neu5Ac(a2-3)Gal(b1-4)GlcNAc(b1-2)Man(a1-3)]Man(b1-4)GlcNAc(b1-4)GlcNAc
Procedure, shortened: as §1

[32] = molecular target: Neu5Ac(a2-3)Gal(b1-4)GlcNAc(b1-2)[Neu5Ac(a2-3)Gal(b1-4)GlcNAc(b1-6)]Man(a1-6)[Neu5Ac(a2-3)Gal(b1-4)GlcNAc(b1-2)Man(a1-3)][GlcNAc(b1-4)]Man(b1-4)GlcNAc(b1-4)GlcNAc
Procedure, shortened: as §1

[33] = molecular target: Neu5Ac(a2-3)Gal(b1-4)GlcNAc(b1-3)Gal
Procedure, shortened: as §1

[34] = molecular target: Neu5Ac(a2-3)Gal(b1-4)GlcNAc(b1-3)Gal(b1-3)GlcNAc
Procedure, shortened: as §1

[35] = molecular target: Neu5Ac(a2-3)Gal(b1-4)GlcNAc(b1-3)Gal(b1-4)GlcNAc
Procedure, shortened: as §1

[36] = molecular target: Neu5Ac(a2-3)Gal(b1-4)GlcNAc(b1-3)Gal(b1-4)GlcNAc(b1-2)Man(a1-3)[Neu5Ac(a2-3)Gal(b1-4)GlcNAc(b1-3)Gal(b1-4)GlcNAc(b1-2)Man(a1-6)]Man(b1-4)GlcNAc(b1-4)GlcNAc
Procedure, shortened: as §1

B1: Cohesin-marm-DC-ASGPR (protein)
chain: LDITSHHHHHHDDLDAVRIKVDTVNAKPGDTVRIPVRFSGIPSKGIANCDFVYSYDPNVLEIIEIEPGDIIVDPNPDKSFDTAVYPDRKIIVFLFAEDSGTGAYAITKDGVFATIVAKVKEGAPNGLSVIKFVEVGGFANNDLVEQKTQFFDGGVNVGDTTEPATPTTPVTTPTTTDDLDAASSKFQRDLVTLRTDFSNFTSNTLAEIQALTSQGSSLQETIASLKAEVEGHKQELQAGASELQEHNKQKAHLGRCPHTCVCPSSFVCVPVHSEILLRVQQLVQDLNKLSCQVAILKNNATTERTCCPINWVEHQGSCYWFSRSGKTWPEAERYCQLENTHLVVINSREEQNFVQAHLGSAYTWMGLSDPEGVWKWVDGTDYSSGFQNWKPGQPDDWQGHGLGGGEDCAHFHPDGRWNDDVCQRSYHWVCEAGLTQASQDSHAS
glycan array binding signal (z-score) [1]: -0.309
glycan array binding signal (z-score) [2]: -0.304
glycan array binding signal (z-score) [3]: -0.268
glycan array binding signal (z-score) [4]: -0.299
glycan array binding signal (z-score) [5]: -0.245
glycan array binding signal (z-score) [6]: -0.301
glycan array binding signal (z-score) [7]: -0.263
glycan array binding signal (z-score) [8]: -0.307
glycan array binding signal (z-score) [9]: -0.258
glycan array binding signal (z-score) [10]: -0.296
glycan array binding signal (z-score) [11]: -0.311
glycan array binding signal (z-score) [12]: -0.302
glycan array binding signal (z-score) [13]: -0.303
glycan array binding signal (z-score) [14]: 3.74
glycan array binding signal (z-score) [15]: -0.277
glycan array binding signal (z-score) [16]: -0.304
glycan array binding signal (z-score) [17]: -0.221
glycan array binding signal (z-score) [18]: -0.285
glycan array binding signal (z-score) [19]: -0.303
glycan array binding signal (z-score) [20]: -0.294
glycan array binding signal (z-score) [21]: -0.31
glycan array binding signal (z-score) [22]: -0.294
glycan array binding signal (z-score) (Neu5Ac(a2-3)Gal(b1-4)Glc): -0.304
glycan array binding signal (z-score) [23]: -0.295
glycan array binding signal (z-score) [24]: -0.146
glycan array binding signal (z-score) [25]: -0.311
glycan array binding signal (z-score) [26]: -0.302
glycan array binding signal (z-score) [27]: -0.3
glycan array binding signal (z-score) [28]: -0.313
glycan array binding signal (z-score) [29]: -0.13
glycan array binding signal (z-score) [30]: -0.098
glycan array binding signal (z-score) [31]: -0.297
glycan array binding signal (z-score) [32]: -0.294
glycan array binding signal (z-score) [33]: -0.313
glycan array binding signal (z-score) [34]: -0.305
glycan array binding signal (z-score) [35]: -0.307
glycan array binding signal (z-score) [36]: -0.276
